Data on 34 variants can be found in the RNAGym collection of RNA variant scans (doi:10.1093/nar/gkz1192).

Read counts are not given, so values of variants with three or more changes are uncertain.

Sequences and labels used below:
B1: CPEB3 Ribozyme (parent)
chain: UAACAGGGGGCCACAGCAGAAGCGUUCACGUCGCAGCCCCUGUCAGAUUCUGGUGAAUCUGCGAAUUCUGCUGUAUAUCUC

In this series the parent is B1. The series can be described thus: self-cleavage, relative activity (ratio to wild type); higher = more cleavage; in vitro, sequencing. Summed up: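 After error-prone PCR and barcoding, CPEB3 ribozyme mutant libraries were transcribed with T7 RNA polymerase at 37°C for 5 hours, then given 15 min with DNase I before an EDTA stop, and they cleaved during both steps. Reverse transcription with template switching preceded Illumina sequencing. Relative activity divides a variant's cleaved/total read fraction by the unmutated ribozyme's. At least 5 reads were required per variant, and three batches were averaged.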
For UAACAUGGGGCCACAGCAGAAGCGUUCACGUCGCAGCCCCUGUCAGAUUCUGGUGAAUCUGCGGAUUCCGCUGUAUAUCUC [G6U A64G U69C], the self-cleavage came to 0.17.
For UAACAUGGGACCACAGCAGAAGCGUCCGCGUCGCAGCCCCUGUCGAAUUCUGGUGAAUCUGCGAAUUCUGCUGUAUAUCUC [G6U G10A U26C A28G A45G G46A], the self-cleavage amounted to 0.06.
The result for UAACAUGGGGCCACAGCAGAAGCGUUCACGUCGCAGCCCCUGUCAGAUUCAGGUGAAUCUGCGAAUUCGGCUGUAUAUCUC [G6U U51A U69G] reads 0.13; that for UAACAUGGGGCCACAGCAGAAGCGUUCACGUCGCUGCCCCCGUCAGAUUCUGGUGAAUCUGCGAAUUCUGCUGUAUAUCUC [G6U A35U U41C], 0.19.
The result for UAACAUGGUGCCACAGCAGAAGCGUUCACGUCGCAGCCCCUGUCAGAUUCAGGUGAAUCUGCGAAUUCUGCUGUAUAUCUC [G6U G9U U51A] reads 0.22.
The result for UAACAUGGGGCCACAGUAGAAGCGUUCACGUCGCAGCCCCUGUCAGAUUCUGGUGAAUCUGCGAAUUCUGAUGUAUAUCUC [G6U C17U C71A] reads 0.18; that for UAACAUGGGGCCACAGCAGGAGCGUUCACGUCGCAGCCCCUGUCAGAUUCUGGUGAGUCUGCGAAUUCUGCUGUAUAUCUC [G6U A20G A57G], 0.39.
Consider UAACAUGGGGCCACAGCAGAAGCGUUCACGUCGCAGCCCCUGUCAGAUUCUGGUGAAUCAGCGAAUUCUGCCGUAUAUCCC [G6U U60A U72C U80C], for which the self-cleavage is 0.33.
As for UAACAUGGGGCCACAGCUGAAGCGUUCACGUCGCUGCCCCUGUCAGAUUCUGGUGAAUCCGCGAAUUCUGCUGUAUAUCUC [G6U A18U A35U U60C], the self-cleavage was 0.07.
The result for UAACAUGGGGCCACAGCAGAAGCGAUCACGUCGCAGCCCCUGUCAGAUUCUGGAGAAUCUGCGAAUUCUGCUGUAUAUCUC [G6U U25A U54A] reads 0.25; that for UAACAUGGGGCCACAGCAGAAGCGUUCACGUCGCAGCCCCUGUCAGGUUCUGGUGAAUCAGCGAAUUCUGCUGUAUAUCCC [G6U A47G U60A U80C], 0.09.
For UAACAUGGGGCCACAGUAGAAGCGAUCACGUCGCAGCCCCUGUCAGAUUCUGGUGAAUCUGCGUAUUCUGCUGUAUAUCUC [G6U C17U U25A A64U], the self-cleavage was determined as 0.04.
The result for UAACAUGGGGUCACAGCAGAAGCGUUCACGUCGCAGCCCCUGUCAGAUUCUGGUGAAUCUGCGAAUUCUGGUGUAUAUCUC [G6U C11U C71G] reads 0.04; that for UAACAUGGGGCCACAGCAGGAGCGUUCACGUCGCAGCCCCUGUCAGAUUCUGGCGAAUCUGCGGAUACUGCUGUAUAUCUC [G6U A20G U54C A64G U67A], 0.37.
With UAACAUGGGGCCACAGCAGAAGCGUUCACGUCGCAGCCCCUAUCAGAUUCUGGCGAAUCUGCGAAUUCCGCUGUAUAUCUC [G6U G42A U54C U69C] the figure was 0.19; with UAACAUGGGGCCACAGCAGAAGCGUUCGCGUCGCAGCCCCUGUCAGAUUCCGGUGAAUCUGCGGAUUCUGCCGUAUAUCUC [G6U A28G U51C A64G U72C], 0.09; with UAACAUGGUGCCACAGCAGGAGCGUUCACGUCGCAGCCCCAGUCAGAUUCUGGUGAAUCUGCGAAUUCUGCUGUAUAUCUC [G6U G9U A20G U41A], 0.06.
With UAACAUGGGGCCACAGCAGAAGCGUUCACGUCGCAGCCCCUGUCAGAUUCUGGUGAACCCGCGAAUUCAGCUGUAUAUCCC [G6U U58C U60C U69A U80C] the figure was 0.04; with UAACAUGGGGCCACAGCAGGAGCGUUCACGUCGCAGCCCCUGUCAGAUUCUGGUGAAUCUGCGUAUUCGGCUGUAUAUCUC [G6U A20G A64U U69G], 0.08.
Take UAACAUGGGGCCACAGCAGAUGCGUUCACGUCGCAGCCCCUGUCGGAUUCUGGUGAAUCUGCGAAUUCUGCUGUAUAUCUC [G6U A21U A45G]: the self-cleavage was found to be 0.06.
For the variant UAACAUGGGGCCACAGCAGAAGCGUCCACGUCGCUGCCCCUGUCAGACUCUGGUGAAUCUGUGAAUUCUGCUGUACAUCUC [G6U U26C A35U U48C C62U U76C], the self-cleavage came out at 0.05.
On to UAACAUGGUGCCACAGCAGGAGCGUUCACGUCGCAGCCCCUGUCAGAUUCUGGUGAAUCUGCGAAAUCUGCCGUAUAUCUC [G6U G9U A20G U66A U72C], for which the self-cleavage stood at 0.05.
With UAACAUGGGGCCACAGCAGAAGCGUUCACGUCGCAGCCCCUGUCAGAAUCUGGUGAAUCUGCGUAUUCUGCUGUAUAUCUC [G6U U48A A64U] the figure was 0.1; with UAACAUGGGGCCACAGCAGAAGCGUUCACGUCGCAGCCCCUGUCAGAUUCUGGUGAAUCUGCGAAUUCUGCUGUGUACCUC [G6U A75G U78C], 0.22; with UAACAUGGGGCCACAGCAGAAGCGUUCACGUCGCAGCCCCUGUCAGAUUCUGGUGGAUCUGCGAGUUCUGCUGUAUAUCUC [G6U A56G A65G], 0.18.
The result for UAACAUGGGGCCACAGCGGAAGCGUUCACGUCGCAGCCCCUGUCAGAUUCUGGUGAAUCUGCGAAUUCUGCUGUAUAUCCC [G6U A18G U80C] reads 0.39; that for UAACAUGGGGCCACAGCAGAAGCGUUCACGUUGCAGCCCCUGUCAGAUACUGGUGAAUCUGCGAAUUCUGCUGUAUAUCUC [G6U C32U U49A], 0.07; that for UAACAUGGGGCCACAGCAGAAGCGUUCACGUCGCAGCCCCUGUCAGGUUCCGGUGAAUCUGCGAACUCUGCUGUAUAUCUC [G6U A47G U51C U66C], 0.04.
Turning to UAACAUGGGGCCACAGCAGAAGCGUUCACGUCGCAGCCCCUGUCAGAUUCUGGUGAAUCUGCCAAUCCUGCUGUAUAUCUC [G6U G63C U67C], the self-cleavage was 0.15.
The result for UAACAUGGGGCCACAGCAGAAGCGUUCACGUCGCAGCCCCUGUCAGAUUCUGGCGAAUCUACGAAUUCUGCUGUAUAUCUC [G6U U54C G61A] reads 0.4; that for UAACAUGGGGCCACAGCAGAAGAGUUCACUCCGCAGCCCAUGUCAGAUUCUGGUGAAUCUGCGAAUUCUGCUGUAUAUCUC [G6U C23A G30U U31C C40A], 0.12; that for UAACAUGGGGCCACAGCAGAAGCGUUCACGUCGCAGCCCCCGUCAGAUUCUGGUGAAUCUGCGUACUCUGCUGUAUAUCUC [G6U U41C A64U U66C], 0.14.
With UAACAUGGGGCCACAGCAGAAGCGUUCACGCCGCAGCCCCUGUCGGAUUCUGGAGAAUCUGCGAAUUCUGCUGUAUAUCUC [G6U U31C A45G U54A] the figure was 0.26; with UAACAUGGGGCCACAGCAGAAGCGUUCACGACUCAGCCCCUGUCAGAUUCUGGUGAAUCUGCGAAUUCUGCUGUAUGUCUC [G6U U31A G33U A77G], 0.08.
